According to the supplement of paper PMC6089552:
Out of some 3,200 compounds screened, about 300 (9.4%) showed activity. Only a part is listed here, and it is no random draw.

System: A673/TR/shEF
Experiment: cell viability (LOESS-normalised, relative to median of negative controls) (log2 ratio); higher = more viable cells (less compound effect), active = hit call of the paper (over 3 MAD below the median)
Conditions: treatment time: 72 h
Outline: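 A673/TR/shEF Ewing sarcoma cells (1,500 per well, 384-well plates) were grown with or without doxycycline to induce EWS-FLI1 shRNA knockdown, starting 24 h before compounds. Library compounds at two or more concentrations, with DMSO controls, were added for three days. Cell viability was read by CellTiter-Glo luminescence on an Envision reader, then LOESS-corrected per plate, divided by the median of negative controls and log2-transformed. Hits were wells at least three median absolute deviations from the median of all screened wells.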

[1] = 0.25 µM, library screen: screen2, EWS-FLI1 expression: high (no doxycycline)
[2] = 0.25 µM, library screen: screen2, EWS-FLI1 expression: low (doxycycline-induced shRNA knockdown)
[3] = 2.5 µM, library screen: screen2, EWS-FLI1 expression: high (no doxycycline)
[4] = 2.5 µM, library screen: screen2, EWS-FLI1 expression: low (doxycycline-induced shRNA knockdown)
[5] = 0.025 µM, library screen: screen1, EWS-FLI1 expression: high (no doxycycline)
[6] = 0.025 µM, library screen: screen1, EWS-FLI1 expression: low (doxycycline-induced shRNA knockdown)
[7] = 0.25 µM, library screen: screen1, EWS-FLI1 expression: high (no doxycycline)
[8] = 0.25 µM, library screen: screen1, EWS-FLI1 expression: low (doxycycline-induced shRNA knockdown)
[9] = 2.5 µM, library screen: screen1, EWS-FLI1 expression: high (no doxycycline)
[10] = 2.5 µM, library screen: screen1, EWS-FLI1 expression: low (doxycycline-induced shRNA knockdown)
[11] = 25 µM, library screen: screen1, EWS-FLI1 expression: high (no doxycycline)
[12] = 25 µM, library screen: screen1, EWS-FLI1 expression: low (doxycycline-induced shRNA knockdown)

Measured: cell viability (log2)

CCCCCCCCCCCCCC(=O)O[C@@H]1[C@@H](C)[C@@]2(O)[C@@H](C=C(CO)C[C@]3(O)C(=O)C(C)=C[C@@H]23)[C@@H]2C(C)(C)[C@]12OC(C)=O
active: [1] -0.184 | [2] -0.159 | [3] -0.478 | [4] -0.292

O=P(O)(O)Cc1ccccc1
inactive: [5] 0.115 | [6] -0.0367 | [7] 0.209 | [8] -0.089
active: [9] -0.281 | [10] -0.453 | [11] -0.356 | [12] -1.06

COc1cc(C=C(C#N)C#N)cc(O)c1O
inactive: [1] 0.15 | [2] 0.104 | [3] 0.12 | [4] 0.124

COc1cc([C@@H]2c3cc4c(cc3[C@H](OC(C)=O)[C@H]3COC(=O)[C@H]23)OCO4)cc(OC)c1OC
active: [7] -3.77 | [8] -0.983 | [9] -3.58 | [10] -1.13

OC[C@H]1O[C@@H](n2cnc3cc(Cl)c(Cl)cc32)[C@H](O)[C@@H]1O
active: [9] -0.183 | [11] -0.16
inactive: [5] 0.182 | [6] -0.067 | [7] 0.227 | [8] 0.0134 | [10] 0.128 | [12] 0.0669

C[N+]1(C)CCOC(O)(c2ccc(-c3ccc(C4(O)C[N+](C)(C)CCO4)cc3)cc2)C1 (stereo unspecified)
inactive: [1] 0.187 | [2] 0.0871 | [3] 0.129 | [4] -0.00984

Nc1ccncc1
inactive: [1] 0.0331 | [2] 0.0977 | [3] 0.0595 | [4] 0.144

COc1ccc(-n2nc(C(F)(F)F)cc2-c2ccc(Cl)cc2)cc1
inactive: [1] 0.23 | [2] 0.0593 | [3] 0.169 | [4] 0.155

CN[C@@H]1[C@@H](O)[C@@H](O[C@@H]2[C@@H](O)[C@H](O[C@H]3O[C@H](CN)CC[C@H]3N)[C@@H](N)C[C@H]2N)OC[C@]1(C)O
inactive: [7] 0.0502 | [8] -0.0312 | [9] 0.184 | [10] 0.0476

CN=C1CN(O)C(c2ccccc2)=c2cc(Cl)ccc2=N1
inactive: [7] 0.0853 | [8] 0.0654 | [9] 0.0997 | [10] 0.0898

C[C@H]1C[C@@H](O)[C@]2(O)[C@@]13CC(=O)OC[C@@]2(C)[C@](C)(O)C(=O)C3
inactive: [7] 0.0914 | [8] -0.0111 | [9] 0.0806 | [10] 0.024

CCCCCCC(C)(C)c1ccc([C@H]2C[C@@H](O)CC[C@H]2CCCO)c(O)c1
inactive: [1] 0.0289 | [2] 0.103 | [3] 0.129 | [4] 0.122

C[N+](C)(C)CC#CCN1CCCC1=O
inactive: [1] 0.0847 | [2] 0.0833 | [3] -0.00818 | [4] 0.0426

NC(=O)c1ccc(OCC(O)CN2CC=C(c3ccc(F)cc3)CC2)cc1 (stereo unspecified)
inactive: [1] 0.0654 | [2] 0.0528 | [3] 0.156 | [4] 0.0805

CC(C)=CC1C(C(=O)OCc2cccc(Oc3ccccc3)c2)C1(C)C (stereo unspecified)
inactive: [7] 0.00222 | [8] 0.0363 | [9] 0.0748 | [10] 0.0487

NC(=O)CN1CC(O)CC1=O (stereo unspecified)
inactive: [1] 0.159 | [2] 0.0927 | [3] 0.0479 | [4] 0.0838

C/C=C(/C)C(=O)O[C@H]1CC[C@@]2(C)[C@@H]3CC[C@H]4[C@]5(O)C[C@H](O)[C@@]6(O)[C@@H](CN7C[C@@H](C)CC[C@H]7[C@@]6(C)O)[C@]5(O)C[C@@]42O[C@]13O
inactive: [7] 0.0954 | [8] 0.0385 | [9] 0.186 | [10] -0.0784

COc1cc([C@@H]2c3cc4c(cc3[C@H](O)[C@H]3COC(=O)[C@@H]23)OCO4)cc(OC)c1OC
active: [9] -2.1 | [10] -0.572

CN1CCC(c2c[nH]c3ccc(O)cc23)CC1
inactive: [1] 0.195 | [2] 0.166 | [3] 0.184 | [4] 0.0715

CC(C)[C@@]1(NC(=O)[C@@H]2C[C@@H]3c4cccc5[nH]cc(c45)C[C@H]3N(C)C2)O[C@@]2(O)[C@@H]3CCCN3C(=O)[C@H](Cc3ccccc3)N2C1=O
inactive: [1] 0.0481 | [2] 0.0917 | [3] 0.11 | [4] 0.0904

CC(=O)C1=C(O)[C@@H]2[C@H]3c4c[nH]c5cccc(c45)C[C@H]3C(C)(C)N2C1=O
inactive: [7] 0.0498 | [8] 0.042 | [9] 0.0855 | [10] 0.00492

CC1Cc2cc3c(cc2C(c2ccc(N)cc2)=NN1)OCO3 (stereo unspecified)
inactive: [2] 0.0421 | [3] 0.085 | [4] 0.09
0.339: [1]

CC(C)CC(NC(=O)C(Cc1ccccc1)NC(=O)CNC(=O)CNC(=O)C(N)Cc1ccc(O)cc1)C(=O)O (stereo unspecified)
inactive: [7] 0.0697 | [8] 0.0904 | [9] 0.0902 | [10] 0.179

CC(N)Cc1c[nH]c2ccc(OCc3cccs3)cc12 (stereo unspecified)
inactive: [1] 0.0866 | [2] 0.123 | [3] 0.029 | [4] 0.0523

CC1(C)C2C[C@@H](O)[C@]3(C)C(CC[C@@]4(C)[C@H](c5ccoc5)OC(=O)[C@H]5O[C@]543)[C@@]2(C)[C@@H](O)C[C@H]1O (stereo partly specified)
inactive: [7] 0.0675 | [8] 0.0959 | [9] 0.135 | [10] 0.0584

COc1ccc2c3c([nH]c2c1)C(C)=NCC3
inactive: [7] 0.0653 | [8] 0.0133 | [9] 0.0867 | [10] 0.107

CCCN1CCC[C@@H]2Cc3[nH]ncc3C[C@H]21
inactive: [1] 0.208 | [2] 0.0276 | [3] 0.158 | [4] 0.0446

Clc1cc(I)cc(Cl)c1NC1=NCCN1
inactive: [1] 0.191 | [2] 0.151 | [3] 0.106 | [4] 0.154

C[C@@H]1O[C@@H](O[C@H]2C[C@@H](O)[C@]3(CO)[C@H]4[C@H](O)C[C@]5(C)[C@@H](C6=CC(=O)OC6)CC[C@]5(O)[C@@H]4CC[C@]3(O)C2)[C@H](O)[C@H](O)[C@H]1O
active: [7] -2.32 | [8] -1.95 | [1] -0.747 | [2] -0.523 | [9] -3.06 | [10] -3.54 | [3] -4.02 | [4] -3.81

C=C(C)[C@@H]1C2OC(=O)C1[C@]1(O)CC3O[C@]34C(=O)O[C@H]2[C@]14C.CC(C)(O)[C@@H]1C2OC(=O)C1[C@]1(O)C[C@H]3O[C@]34C(=O)O[C@H]2[C@]14C (stereo partly specified)
inactive: [1] 0.0987 | [2] 0.0228 | [3] 0.079 | [4] 0.0567

CN1[C@@H]2CC[C@H]1CC(OC(=O)C(CO)c1ccccc1)C2 (stereo partly specified)
inactive: 0.103 µM, library screen: screen3, EWS-FLI1 expression: high (no doxycycline) -0.0138 | 0.103 µM, library screen: screen3, EWS-FLI1 expression: low (doxycycline-induced shRNA knockdown) 0.0399 | [7] 0.0603 | [8] 0.0968 | 0.308 µM, library screen: screen3, EWS-FLI1 expression: high (no doxycycline) -0.021 | 0.308 µM, library screen: screen3, EWS-FLI1 expression: low (doxycycline-induced shRNA knockdown) -0.00749 | 0.926 µM, library screen: screen3, EWS-FLI1 expression: high (no doxycycline) -0.0329 | 0.926 µM, library screen: screen3, EWS-FLI1 expression: low (doxycycline-induced shRNA knockdown) 0.092 | [9] 0.15 | [10] 0.157 | 2.8 µM, library screen: screen3, EWS-FLI1 expression: high (no doxycycline) -0.023 | 2.8 µM, library screen: screen3, EWS-FLI1 expression: low (doxycycline-induced shRNA knockdown) -0.00135 | 8.3 µM, library screen: screen3, EWS-FLI1 expression: high (no doxycycline) -0.0414 | 8.3 µM, library screen: screen3, EWS-FLI1 expression: low (doxycycline-induced shRNA knockdown) -0.0331 | 25 µM, library screen: screen3, EWS-FLI1 expression: high (no doxycycline) -0.025 | 25 µM, library screen: screen3, EWS-FLI1 expression: low (doxycycline-induced shRNA knockdown) 0.0734

CCCN1CCC[C@H](c2cccc(O)c2)C1
inactive: [1] 0.152 | [2] 0.136 | [3] 0.172 | [4] 0.113

C[C@@H](N)[C@@H](O)c1ccccc1
inactive: [7] 0.199 | [8] 0.05 | [9] 0.0838 | [10] 0.0342

C[C@H](Cc1ccc2c(c1)OC(C(=O)O)(C(=O)O)O2)NC[C@H](O)c1cccc(Cl)c1
inactive: [1] 0.294 | [2] 0.0238 | [3] 0.0374 | [4] 0.0367

CCC1(c2ccc(N)cc2)CCC(=O)NC1=O (stereo unspecified)
inactive: [7] 0.0131 | [8] 0.0834 | [1] 0.134 | [2] 0.158 | [9] 0.129 | [10] 0.179 | [3] 0.202 | [4] 0.19

C[N+]1(C)CCN(c2ccccc2)CC1
inactive: [1] 0.217 | [2] 0.0589 | [3] 0.134 | [4] 0.061

N[C@@]1(C(=O)O)CC[C@@H](C(=O)O)C1
inactive: [1] 0.102 | [2] 0.109 | [3] 0.101 | [4] 0.133

CCn1cc(C(=O)O)c(=O)c2cc3c(cc21)OCO3
inactive: [7] 0.0377 | [8] 0.114 | [1] 0.0369 | [2] 0.0537 | [9] 0.08 | [10] 0.14 | [3] 0.0985 | [4] 0.0431

NCCc1ccc(O)cc1
inactive: [7] 0.0239 | [8] 0.0662 | [1] 0.157 | [2] 0.123 | [9] 0.134 | [10] 0.0729 | [3] 0.116 | [4] 0.0531

c1ccc(N=Nc2ccccc2)cc1
inactive: [7] 0.0795 | [8] 0.0179 | [9] 0.0868 | [10] 0.083

CC(=O)CC1CCCCN1 (stereo unspecified)
inactive: [7] 0.0906 | [8] -0.00634 | [9] 0.0756 | [10] -0.083

C[C@]12C=CC(=O)C=C1CC[C@@H]1[C@@H]2CC[C@]2(C)C(=O)CC[C@@H]12
inactive: [7] 0.0143 | [8] 0.0386 | [9] -0.0049 | [10] 0.0547

COc1ccc2c(c[n+](C)c3c4cc5c(cc4ccc23)OCO5)c1OC
inactive: [1] 0.273 | [2] 0.121 | [3] 0.106 | [4] 0.0124
